Reference: the supplement of paper PMC7125110
± gives the standard error. Variants at the background level are over-represented here.

B1: glmS ribozyme (parent)
chain: AUAAAAGCGCCAGAACUACAGAAAUGUAGUUGACGAGGAGGAGGUUUAUCGAAUUUUCGGCGGAUGCCUCCAAA

Variants of: B1
Assay: self-cleavage kobs at 10000 uM GlcN6P; higher = faster cleavage; RNA array
Settings: with glucosamine-6-phosphate
Outline: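 Tiles bearing barcoded ribozyme variants, transcribed in situ by E. coli RNA polymerase on sequenced MiSeq chips, were imaged over ~14 h at 37 °C using a hybridised Cy3 probe. Glucosamine-6-phosphate was supplied at 40 μM to 10 mM in HEPES/KCl/Mg(OAc)2 buffer. kobs came from one- or two-exponential decay fits to normalised per-tile medians, and weighted Michaelis–Menten fits then provided kcat and KM.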

| Variant | self-cleavage kobs at 10000 uM GlcN6P [s⁻¹] |
| --- | --- |
| A48G C58U A64U | < 1e-05 |
| A48U A52C G60A A64C | < 1e-05 |
| C50A G51U G59A U69A | < 1e-05 |
| C50G A53U C71G | 0.000148 ± 4e-05 |
| C50U A53U C61U C67U | < 1e-05 |
| A53U U57G G60C | < 1e-05 |
| U55G C61A C71G | < 1e-05 |
| U56C G59U C70G | < 1e-05 |
| U57A G60A C61A | < 1e-05 |
| C58A C61A C70U | < 1e-05 |
| G59A U65C C70A | < 1e-05 |
| G59C G63C C70A | < 1e-05 |
| G59U C61G | < 1e-05 |
| G60U C61U C71G | < 1e-05 |
| C61G C68G U69A | < 1e-05 |
| C61U C68A C71U | < 1e-05 |
| G63U C68A | < 1e-05 |
